In publication PMC4336329 (PLoS ONE, 2015):
About 14,000 (4.5%) of roughly 310,000 compounds showed an effect of 50% or more. The effect is printed as a negative number. The list shows a part of the results.

target: human ether-à-go-go-related gene (hERG) potassium channel (human, UniProt Q12809); test: primary screen, population patch clamp on CHO cells stably expressing hERG
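Also: peak tail current of the secondary pulse compared with the same well before compound.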

human ether-à-go-go-related gene (hERG) potassium channel, sequence (Q12809 whole entry, looked up): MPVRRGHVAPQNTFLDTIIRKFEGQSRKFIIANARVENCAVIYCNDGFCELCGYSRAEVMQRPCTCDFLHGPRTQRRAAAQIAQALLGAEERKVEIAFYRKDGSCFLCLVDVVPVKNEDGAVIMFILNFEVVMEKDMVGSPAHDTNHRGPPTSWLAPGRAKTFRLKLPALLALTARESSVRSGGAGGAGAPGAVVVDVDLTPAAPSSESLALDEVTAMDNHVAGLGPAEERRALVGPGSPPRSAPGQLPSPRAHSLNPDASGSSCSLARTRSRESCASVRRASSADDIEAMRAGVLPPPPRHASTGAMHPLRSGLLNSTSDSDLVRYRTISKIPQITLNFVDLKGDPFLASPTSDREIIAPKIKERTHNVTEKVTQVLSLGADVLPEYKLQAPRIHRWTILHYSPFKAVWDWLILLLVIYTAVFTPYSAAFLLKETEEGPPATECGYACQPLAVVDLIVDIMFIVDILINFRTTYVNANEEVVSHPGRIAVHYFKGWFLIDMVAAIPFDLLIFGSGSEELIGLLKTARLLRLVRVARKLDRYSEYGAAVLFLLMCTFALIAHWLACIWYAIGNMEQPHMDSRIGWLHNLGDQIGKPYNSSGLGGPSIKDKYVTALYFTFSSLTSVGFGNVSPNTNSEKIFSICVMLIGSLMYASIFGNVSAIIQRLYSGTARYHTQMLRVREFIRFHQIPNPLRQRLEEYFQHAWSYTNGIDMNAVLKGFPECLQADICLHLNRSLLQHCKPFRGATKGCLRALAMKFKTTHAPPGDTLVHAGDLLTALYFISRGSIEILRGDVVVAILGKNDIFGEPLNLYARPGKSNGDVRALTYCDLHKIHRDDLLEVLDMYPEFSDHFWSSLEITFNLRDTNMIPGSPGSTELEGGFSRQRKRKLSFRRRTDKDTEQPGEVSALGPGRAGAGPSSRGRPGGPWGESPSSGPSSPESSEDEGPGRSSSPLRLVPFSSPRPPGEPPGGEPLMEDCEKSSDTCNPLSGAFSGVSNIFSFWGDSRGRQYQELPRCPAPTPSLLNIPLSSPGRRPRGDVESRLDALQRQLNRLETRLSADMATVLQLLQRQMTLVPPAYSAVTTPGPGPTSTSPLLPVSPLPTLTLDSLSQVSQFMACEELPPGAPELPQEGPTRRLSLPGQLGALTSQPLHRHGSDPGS

Row | SMILES | hERG current change (%, negative = inhibition) at 10uM [%]
1 | CCNC(=O)CN(c1ccc(CC)cc1)S(C)(=O)=O | 3.74
2 | COc1ccccc1NS(=O)(=O)c1ccc(NC(=O)CCNC(=O)c2ccco2)cc1 | 14.4
3 | COc1ccccc1NC(=O)c1cnc2n(c1=O)CCS2 | 10.7
4 | O=C(CSc1ccc(Cl)cc1)NC(=O)c1ccccc1 | -7.63
5 | O=C(Nc1cc(F)ccc1F)C1CCCN(c2ncnc3c2nc2n3CCCCC2)C1 (stereo not drawn) | -59.5
6 | CCN(CC)C(=O)C1(P(=O)(c2ccccc2)c2ccccc2)CCC1 | 8.45
7 | O=C(CN(C(=O)CCC(=O)Nc1ccccn1)c1ccc2c(c1)OCO2)NCc1ccc(F)cc1 | 9.42
8 | CN1C/C(=C/c2ccncc2)C(=O)/C(=C/c2ccncc2)C1 | 26.7
9 | CCCC(=O)N(c1ccc(OCC)cc1)C1C=CS(=O)(=O)C1 (stereo not drawn) | -19.2
10 | Cc1noc(C)c1S(=O)(=O)Nc1ccc(C(=O)N2CCc3ccccc3C2)cc1 | -12.4
11 | Cc1cc(C)n2cc(CSc3nncn3C)nc2n1 | 17.2
12 | CCNCc1cc(Cl)cc(OC)c1OC(C)C.Cl | 6.4
13 | Cc1nn(C)c(C(=O)N2CCN(C(=O)c3ccco3)CC2)c1[N+](=O)[O-] | 8.95
14 | Nc1nonc1-n1nnc(C(=O)N/N=C/c2ccccc2F)c1-c1cccs1 | 14.8
15 | CC(C)Cn1c(N)c(C(=O)COC(=O)CN2C(=O)C3CC=CCC3C2=O)c(=O)n(C)c1=O (stereo not drawn) | -4.23
16 | CCCCOC(=O)Nc1nnc(CCOCC)s1 | 0.737
17 | Cn1c([O-])c(Cc2ccc(OCc3ccccc3)cc2)c(=O)n(C)c1=O.[NH4+] | 13.4
18 | O=C1NC(=O)N(c2cccc(Br)c2)C(=O)/C1=C/c1ccsc1 | 15.3
19 | COc1ccc(CNC(=O)CN2c3ccccc3S(=O)(=O)c3ccccc32)cc1 | -4.56
20 | Cc1cc(/C=C2\C(=O)NC(=O)N(c3ccccc3)C2=O)c(C)n1-c1ccc(C(=O)O)c(Cl)c1 | 27.9
21 | CCOC(=O)CN1C(=O)S/C(=C\c2ccc(-c3cccc(C(=O)O)c3C)o2)C1=O | 1.47
22 | COc1ccccc1C(=O)Nn1cnnc1 | 13.6
23 | Cc1nn2c(N3CCN(C)CC3)cc(C(C)(C)C)nc2c1-c1ccccc1 | 6.34

Row | SMILES | hERG current change (%, negative = inhibition) at 10uM [%]
24 | COc1ccc(-c2[nH]ncc2CN(C)Cc2cccnc2)c(OC)c1 | 6.28
25 | c1ccc(-c2ccc(-c3nc(-c4cccnc4)no3)cc2)cc1 | 15.7
26 | O=C(O)CCC(=O)N1N=C(c2ccc(Br)cc2)CC1c1cccs1 (stereo not drawn) | 14.8
27 | Cc1nc2ccccn2c1-c1csc(Nc2cccc(C(=O)O)c2)n1 | 12.9
28 | C#CC[N+]1(CC#Cc2ccccc2)CCCC1.[I-] | -1.53
29 | CC(=O)Nc1cc2c(cc1C(=O)c1ccc(C)cc1)OCCO2 | 5.77
30 | CCCCOc1ccc(C(=O)NCC(=O)NCc2ccncc2)cc1 | -13.6
31 | Cc1ccc(-n2cnc3sc(C)c(C)c3c2=O)cc1 | 7.98
32 | c1nnc(-c2ccc3c(c2)OCO3)o1 | 18.5
33 | CCc1ccccc1NC(=O)Cc1ccc(-n2cccc2)cc1 | -2.46
34 | CN(C)C(CNC1CC(C)(C)NC(C)(C)C1)c1cccc(F)c1 (stereo not drawn) | 8.46
35 | O=C(O)c1ccc(NCc2ccc3c(c2)OCO3)cc1 | 7.97
36 | Cc1ccccc1NC(=O)/C(C#N)=C\c1cccnc1 | -16.3
37 | COC(=O)C(Cc1c[nH]c2ccccc12)NC(=O)CNC(C)=O (stereo not drawn) | 9.15
38 | C#CCC(NC(=O)c1ccc(C(F)(F)F)cc1)C(=O)NCCC (stereo not drawn) | 12.5
39 | COc1ccc(C(=O)/C=C/c2ccccc2C(F)(F)F)cc1 | 11.6
40 | O=C(Nc1ccc(Cl)cc1)c1ccc(CN2CCc3ccccc3C2)cc1 | 13.7
41 | CC1(C)Cc2c(c(N3CCOCC3)nc3sc4c(NCC5CCCO5)nnnc4c23)CS1 (stereo not drawn) | -6.71
42 | COc1cccc(-n2c(O)c(C=NCCN3CCOCC3)c(=O)[nH]c2=O)c1 | 6.62
43 | CN(C)c1ccnc(Nc2ccc(F)cc2)c1C#N | 23.4
44 | O=C(OCC(=O)N1CCN(C(=O)c2ccco2)CC1)c1sc2cc(F)ccc2c1Cl | -4.52
45 | CCn1ncc(CN2CCC(Oc3ccc(C(=O)N4CCCC4)cc3)CC2)c1C | -1.92
46 | CCOC(=O)c1[nH]ncc1CN1CCc2ccc(NC(=O)C3CCCO3)cc2C1 (stereo not drawn) | 5.01

Row | SMILES | hERG current change (%, negative = inhibition) at 10uM [%]
47 | Cc1[nH]n(-c2ccccc2)c(=O)c1/C=N/N1CCOCC1 | 5.34
48 | CC(C)=CC/C=C1\CCC(C(=O)O)C(C(=O)O)C1 (stereo not drawn) | 15.5
49 | CCOC(=O)CNC(=O)CSc1nc2c(C)cccc2cc1CC | 11.9
50 | COc1ccc(-c2cc3nc(-c4ccccc4)cc(N4CCCC(O)C4)n3n2)cc1 (stereo not drawn) | 11.8
51 | Cc1cc(O)c(CN2CCN(S(=O)(=O)c3cccs3)CC2)cc1C(C)C | -6.75
52 | COc1ccc(C(=O)Nc2ccc(Nc3ccccc3)cc2)cc1Br | -2.07
53 | COC(=O)c1c(C(=O)OC)c2n(c1C)CCC2 | 0.0802
54 | N#Cc1c(-c2ccc(F)cc2)nc2n(c1=O)CCS2 | -1.12
55 | CC(Oc1ccc(Br)cc1)c1nc2c3ccccc3nc(=S)n2[nH]1 (stereo not drawn) | 18.5
56 | CCN(CC)c1ccc2cc(C#N)c(=O)oc2c1 | 13.4
57 | C[C@@H]1NC(=O)/C(=C\c2ccccc2Cl)NC1=O | 10.5
58 | CCOC(=O)c1c(S(=O)(=O)NC2CCN(C(=O)OCC)CC2)c(C)n(C)c1C | -0.507
59 | C=CCC1(CC=C)CCCN1C(=O)c1cc(COc2ccc(C)nc2)on1 | -15.5
60 | Cc1ccc(-c2nnc(NCc3nc4ccccc4[nH]3)c3ccccc23)cc1S(=O)(=O)N(C)C | -26.3
61 | O=C(CCC(=O)N1CCN(c2cccc(Cl)c2)CC1)N1CCN(c2ccccc2)CC1 | -55.6
62 | O=C(NC(c1ccccc1)c1ccccc1)c1ccc(=O)[nH]n1 | -7.45
63 | CCc1ccc(NC(=O)CCc2nnc3ccc(N4CCC5(CC4)OCCO5)nn23)cc1 | -24.9
64 | CCN(CC)CCCNC(=S)N(Cc1cccnc1)Cc1cc2cccc(C)c2[nH]c1=O | -1.68
65 | COC(=O)CSc1nc(N2CCOCC2)c2c(c1C#N)CC(C)(C)OC2 | 1.51
66 | Cc1[nH]c(C)c(S(=O)(=O)N2CCN(c3ccccc3)CC2)c1C(=O)N1CCCC1 | -10.4
67 | O=S(=O)(c1ccc(Cl)cc1)N1CN2CCN(C2)C1 | 11.3
68 | Cn1c(=NC(=O)COc2ccccc2)sc2cc(F)cc(F)c21 | 6.83
69 | Cc1cccn2c(=O)c(C=C(C#N)C#N)c(N3CCN(c4ccccc4)CC3)nc12 | -7.68

Row | SMILES | hERG current change (%, negative = inhibition) at 10uM [%]
70 | CC(=O)NN1C(=O)/C(=C/c2ccc(C(C)C)cc2)SC1=S | -2
71 | Brc1ccc(CN2CCNCC2)s1 | -4.59
72 | CSc1ccc(C(C(C(=O)c2cccs2)N2CCOCC2)N2CCOCC2)cc1 (stereo not drawn) | -3.73
73 | COc1ccc(N2CCN(C(=O)c3cn(CC4CCCCC4)nn3)CC2)cc1 | -14.3
74 | CN(C)c1ccccc1C(=O)N1CCCC(C(=O)c2ccc3ccccc3c2)C1 (stereo not drawn) | 6.58
75 | CN(CCC#N)C(=O)c1ccc(CNS(=O)(=O)c2ccc(F)cc2)cc1 | 12.6
76 | CSCCC1C(C#N)=C(N)Oc2n[nH]c(-c3cccs3)c21 (stereo not drawn) | -9.57
77 | Cc1ccc(N(CC(=O)Nc2ccc(C)cn2)S(=O)(=O)c2c(C)nn(C)c2C)cc1 | -22.7
78 | C[C@@H](NC(=O)c1nc[nH]c1C(=O)NCC(=O)OC(C)(C)C)c1ccccc1 | -0.16
79 | CCN(CC)CCNCc1cc(Br)ccc1OCC(=O)NCc1ccccc1.Cl | -83.2
80 | Cc1ccc(OCC(=O)NCCNC(=O)c2ccco2)cc1 | 9.1
81 | CCN1CNC(=S)N(c2ccccc2OC)C1 | 16
82 | C/C(=N\NC(=O)c1cc(-c2ccc(C)s2)[nH]n1)c1ccco1 | -7.34
83 | Cc1cccc(OCC(=O)Nc2ccc(N3CCN(C(=O)c4ccccc4)CC3)cc2)c1 | -43.3
84 | CCO[C@@H]1OC(C(=O)N2CCN(Cc3ccc4c(c3)OCO4)CC2)=C[C@H](c2ccc(C(F)(F)F)cc2)[C@H]1CCCO | -13.8
85 | Cc1cc(C)c(-n2nnnc2SC(C)C)c(C)c1 | -2.54
86 | Nn1c(N2CCCCC2)nc2ccccc21 | 6.16
87 | COCc1ccc(CN2CCCC(C(=O)Nc3ccc(-c4cccc(OC)c4)cc3)C2)o1 (stereo not drawn) | -0.711
88 | CCn1c(O)c(N=NC(=O)C(O)c2ccccc2)c2ccccc21 (stereo not drawn) | 1.23
89 | COc1ccccc1CNC(=O)c1cccc(S(=O)(=O)N2CCN(C)CC2)c1 | -8.01
90 | Cc1cccc(NC(=O)Cc2ccc(NC3=NC4CS(=O)(=O)CC4S3)cc2)c1 (stereo not drawn) | 2.28
